# The other results are listed elsewhere or left out.
# B1: AT1G15820(NC) (Arabidopsis thaliana) (protein)
# chain: MAMAVSGAVLSGLGSSFLTGGKRGATALASGVGDAIAPFSFGSLLGTQLLLMGWVESKRWVDFFNPDSQSVEWATPWSKTAENFANYTGDQGYPGGRFFDPLGLAGKNRDGVYEPDFEKLERLKLAEIKHSRLAMVAMLIFYFEAGQGKTPLGALGL
# Assays:
# Assay in all cases: glycan array binding signal (z-score within array); higher = stronger binding
# Conditions in all cases: glycan notation: IUPAC condensed, linker removed
# [1] = molecular target: Gal(b1-4)GlcNAc(b1-3)Gal(b1-4)GlcNAc(b1-6)[Gal(b1-3)]GalNAc
# In short: (§1)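 From the Consortium for Functional Glycomics database, 3228 arrays were curated, keeping only those whose protein sequence was available. Binding is given as a within-array Z-score averaged across arrays sharing a protein sequence and across linkers. Negative Z-scores can be read as non-binding.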
# [2] = molecular target: Gal(b1-4)GlcNAc(b1-3)Gal(b1-4)[Fuc(a1-3)]GlcNAc(b1-3)Gal(b1-4)[Fuc(a1-3)]GlcNAc
# In short: as §1
# [3] = molecular target: Gal(b1-4)GlcNAc(b1-3)GalNAc
# In short: as §1
# [4] = molecular target: Gal(b1-4)GlcNAc(b1-3)[Fuc(a1-3)GlcNAc(b1-6)]Gal(b1-4)Glc
# In short: as §1
# [5] = molecular target: Gal(b1-4)GlcNAc(b1-3)[Gal(b1-4)GlcNAc(b1-6)]Gal(b1-4)GlcNAc
# In short: as §1
# [6] = molecular target: Gal(b1-4)GlcNAc(b1-3)[GlcNAc(b1-6)]Gal(b1-4)GlcNAc
# In short: as §1
# [7] = molecular target: Gal(b1-4)GlcNAc(b1-6)Gal(b1-4)GlcNAc
# In short: as §1
# [8] = molecular target: Gal(b1-4)GlcNAc(b1-6)GalNAc
# In short: as §1
# [9] = molecular target: Gal(b1-4)GlcNAc(b1-6)[Gal(b1-3)]GalNAc
# In short: as §1
# [10] = molecular target: Gal(b1-4)GlcNAc(b1-6)[Gal(b1-4)GlcNAc(b1-3)]GalNAc
# In short: as §1
# [11] = molecular target: Gal(b1-4)GlcNAc6P
# In short: as §1
# [12] = molecular target: Gal(b1-6)Gal
# In short: as §1
# [13] = molecular target: Gal3S(b1-3)GalNAc
# In short: as §1
# [14] = molecular target: Gal3S(b1-3)GlcNAc
# In short: as §1
# [15] = molecular target: Gal3S(b1-3)[Fuc(a1-4)]GlcNAc
# In short: as §1
# [16] = molecular target: Gal3S(b1-4)Glc
# In short: as §1
# [17] = molecular target: Gal3S(b1-4)Glc6S
# In short: as §1
# [18] = molecular target: Gal3S(b1-4)GlcNAc
# In short: as §1
# [19] = molecular target: Gal3S(b1-4)[Fuc(a1-3)]Glc6S
# In short: as §1
# [20] = molecular target: Gal3S(b1-4)[Fuc(a1-3)]GlcNAc
# In short: as §1
# [21] = molecular target: Gal3S(b1-4)[Fuc(a1-3)]GlcNAc6S
# In short: as §1
# [22] = molecular target: Gal3S4S(b1-4)GlcNAc
# In short: as §1
# [23] = molecular target: Gal3S6S(b1-4)GlcNAc
# In short: as §1
# [24] = molecular target: Gal3S6S(b1-4)GlcNAc6S
# In short: as §1
# [25] = molecular target: Gal4S(b1-4)GlcNAc
# In short: as §1
# [26] = molecular target: Gal4S6S(b1-4)GlcNAc
# In short: as §1
# [27] = molecular target: Gal6P(b1-4)GlcNAc
# In short: as §1
# [28] = molecular target: Gal6S(b1-3)GlcNAc
# In short: as §1
# [29] = molecular target: Gal6S(b1-3)GlcNAc6S
# In short: as §1
# [30] = molecular target: Gal6S(b1-4)Glc
# In short: as §1
# [31] = molecular target: Gal6S(b1-4)Glc6S
# In short: as §1
# [32] = molecular target: Gal6S(b1-4)GlcNAc
# In short: as §1
# [33] = molecular target: Gal6S(b1-4)GlcNAc6S
# In short: as §1
# [34] = molecular target: GalNAc(a1-3)Gal
# In short: as §1
# [35] = molecular target: GalNAc(a1-3)GalNAc
# In short: as §1
# [36] = molecular target: GalNAc(a1-3)GalNAc(b1-3)Gal(a1-4)Gal(b1-4)Glc
# In short: as §1
# [37] = molecular target: GalNAc(a1-3)GalNAc(b1-3)Gal(a1-4)Gal(b1-4)GlcNAc
# In short: as §1
# [38] = molecular target: GalNAc(b1-3)Gal
# In short: as §1
# [39] = molecular target: GalNAc(b1-3)Gal(a1-4)Gal(b1-4)GlcNAc
# In short: as §1
# [40] = molecular target: GalNAc(b1-3)Gal(a1-4)Gal(b1-4)GlcNAc(b1-3)Gal(b1-4)Glc
# In short: as §1
# [41] = molecular target: GalNAc(b1-3)Gal(a1-6)Gal(b1-4)Glc
# In short: as §1
# [42] = molecular target: GalNAc(b1-3)GalNAc
# In short: as §1
# [43] = molecular target: GalNAc(b1-3)GlcNAc
# In short: as §1
# [44] = molecular target: GalNAc(b1-4)Gal(b1-4)Glc
# In short: as §1
# [45] = molecular target: GalNAc(b1-4)GlcNAc
# In short: as §1
binder,measurement,setting,value
B1,glycan array binding signal (z-score),[1],0.544
same,glycan array binding signal (z-score),[2],-0.266
same,glycan array binding signal (z-score),[3],-0.348
same,glycan array binding signal (z-score),[4],-0.289
same,glycan array binding signal (z-score),[5],-0.416
same,glycan array binding signal (z-score),[6],-0.29
same,glycan array binding signal (z-score),[7],-0.003
same,glycan array binding signal (z-score),[8],0.644
same,glycan array binding signal (z-score),[9],0.249
same,glycan array binding signal (z-score),[10],0.457
same,glycan array binding signal (z-score),[11],-0.42
same,glycan array binding signal (z-score),[12],-0.3
same,glycan array binding signal (z-score),[13],0.95
same,glycan array binding signal (z-score),[14],0.265
same,glycan array binding signal (z-score),[15],-0.133
same,glycan array binding signal (z-score),[16],0.329
same,glycan array binding signal (z-score),[17],0.089
same,glycan array binding signal (z-score),[18],0.198
same,glycan array binding signal (z-score),[19],0.578
same,glycan array binding signal (z-score),[20],-0.539
same,glycan array binding signal (z-score),[21],0.071
same,glycan array binding signal (z-score),[22],1.45
same,glycan array binding signal (z-score),[23],0.403
same,glycan array binding signal (z-score),[24],1
same,glycan array binding signal (z-score),[25],0.014
same,glycan array binding signal (z-score),[26],-0.442
same,glycan array binding signal (z-score),[27],-0.514
same,glycan array binding signal (z-score),[28],-0.241
same,glycan array binding signal (z-score),[29],-0.611
same,glycan array binding signal (z-score),[30],-0.086
same,glycan array binding signal (z-score),[31],-0.425
same,glycan array binding signal (z-score),[32],-0.34
same,glycan array binding signal (z-score),[33],-0.036
same,glycan array binding signal (z-score),[34],-0.448
same,glycan array binding signal (z-score),[35],-0.162
same,glycan array binding signal (z-score),[36],-0.146
same,glycan array binding signal (z-score),[37],-0.435
same,glycan array binding signal (z-score),[38],-0.341
same,glycan array binding signal (z-score),[39],1.78
same,glycan array binding signal (z-score),[40],-0.057
same,glycan array binding signal (z-score),[41],-0.443
same,glycan array binding signal (z-score),[42],-0.379
same,glycan array binding signal (z-score),[43],-0.221
same,glycan array binding signal (z-score),[44],-0.588
same,glycan array binding signal (z-score),[45],7.2
